Source: publication PMC7617826
Results are given in words; binding and its absence hold for the method and conditions named. Binding seen in cells or lysates may run through a third protein. Some entries that bind do so weakly or less than the wild type. Where a sequence is shown, tags or fusion partners need not be part of it.

By UniProt entry, the sequences of proteins in these tests, tags left out.
UniProt Q92572: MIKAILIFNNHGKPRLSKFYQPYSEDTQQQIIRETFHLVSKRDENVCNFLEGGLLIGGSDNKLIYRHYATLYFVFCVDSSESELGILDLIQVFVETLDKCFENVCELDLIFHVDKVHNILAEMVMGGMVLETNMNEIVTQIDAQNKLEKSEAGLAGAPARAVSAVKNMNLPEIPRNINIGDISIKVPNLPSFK
UniProt Q9BTU6: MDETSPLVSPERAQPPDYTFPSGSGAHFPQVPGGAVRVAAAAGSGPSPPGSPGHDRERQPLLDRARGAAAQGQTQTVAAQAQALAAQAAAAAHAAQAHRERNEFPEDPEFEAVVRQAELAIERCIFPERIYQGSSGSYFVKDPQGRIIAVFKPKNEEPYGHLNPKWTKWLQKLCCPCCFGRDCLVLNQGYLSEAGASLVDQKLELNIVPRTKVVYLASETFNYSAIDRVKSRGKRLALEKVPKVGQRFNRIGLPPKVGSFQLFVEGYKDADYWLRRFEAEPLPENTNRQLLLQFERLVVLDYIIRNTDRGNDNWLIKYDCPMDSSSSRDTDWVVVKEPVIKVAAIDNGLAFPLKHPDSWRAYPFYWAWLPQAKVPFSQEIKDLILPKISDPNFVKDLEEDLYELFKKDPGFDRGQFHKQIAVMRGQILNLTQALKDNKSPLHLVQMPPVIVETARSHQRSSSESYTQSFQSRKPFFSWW

T1: EGFP-ARFIP chimera (N-terminal portion of ARFIP2 (1–92) fused with the BAR domain of ARFIP1 (93–341)) (UniProt P53365)
T1 sequence: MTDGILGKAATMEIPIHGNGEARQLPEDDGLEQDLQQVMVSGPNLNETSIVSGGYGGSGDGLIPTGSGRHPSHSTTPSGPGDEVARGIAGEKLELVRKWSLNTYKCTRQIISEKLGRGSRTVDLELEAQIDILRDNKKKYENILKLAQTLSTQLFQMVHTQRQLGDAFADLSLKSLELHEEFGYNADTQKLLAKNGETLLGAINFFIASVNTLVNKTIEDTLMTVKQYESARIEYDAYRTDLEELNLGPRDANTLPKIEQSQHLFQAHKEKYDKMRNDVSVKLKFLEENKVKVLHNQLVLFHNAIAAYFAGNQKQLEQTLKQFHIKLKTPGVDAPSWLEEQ

T2: EGFP-ARFIP2 (ADP ribosylation factor interacting protein 2), full-length wild type (UniProt P53365)
T2 sequence: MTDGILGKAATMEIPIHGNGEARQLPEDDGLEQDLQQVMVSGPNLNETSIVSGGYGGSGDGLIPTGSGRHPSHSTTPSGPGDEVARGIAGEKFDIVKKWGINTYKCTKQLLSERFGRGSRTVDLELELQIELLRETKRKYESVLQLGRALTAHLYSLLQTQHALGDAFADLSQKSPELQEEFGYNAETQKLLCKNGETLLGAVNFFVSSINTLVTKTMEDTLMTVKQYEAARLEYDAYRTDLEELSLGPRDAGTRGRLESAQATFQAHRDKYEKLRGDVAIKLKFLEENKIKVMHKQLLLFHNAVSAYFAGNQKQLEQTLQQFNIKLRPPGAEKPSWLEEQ

T3: EGFP-ARFIP2 BAR domain (109–341) (UniProt P53365)
T3 sequence: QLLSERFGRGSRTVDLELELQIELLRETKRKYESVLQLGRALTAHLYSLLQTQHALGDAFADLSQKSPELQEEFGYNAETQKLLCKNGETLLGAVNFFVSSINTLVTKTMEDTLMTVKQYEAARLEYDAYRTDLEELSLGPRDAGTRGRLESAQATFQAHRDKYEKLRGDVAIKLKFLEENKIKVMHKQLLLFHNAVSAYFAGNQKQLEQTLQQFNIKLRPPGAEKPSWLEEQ


Assays:
Experiment in all cases: co-IP; GFP-trap from lysates (TNTE buffer: 20 mM Tris pH 7.4, 150 mM NaCl, 1% Triton X-100, 5 mM EDTA; 2 h at 4 °C) of CrARFIP2KO cells stably expressing EGFP, EGFP-ARFIP2, EGFP-AH-BAR (BAR) or EGFP-ARFIP chimera; western blot
[1] = biological target: T1, EGFP-ARFIP chimera (N-terminal portion of ARFIP2 (1–92) fused with the BAR domain of ARFIP1 (93–341))
[2] = biological target: T2, EGFP-ARFIP2 (ADP ribosylation factor interacting protein 2), full-length wild type
[3] = biological target: T3, EGFP-ARFIP2 BAR domain (109–341)

| binding [1] | binding [2] | binding [3] | Molecule |
| --- | --- | --- | --- |
| binds | binds | no binding | AP3S1 (AP-3 sigma subunit) (from UniProt Q92572 1-193) |
| binds | binds | – | PI4K2A (phosphatidylinositol 4-kinase-2a) (from UniProt Q9BTU6 1-479) (enzyme) |
| binds | binds | – | OSBPL9 (oxysterol-binding protein-like protein 9) (protein, UniProt Q96SU4 1-736) MASIMEGPLSKWTNVMKGWQYRWFVLDYNAGLLSYYTSKDKMMRGSRRGCVRLRGAVIGIDDEDDSTFTITVDQKTFHFQARDADEREKWIHALEETILRHTLQLQGLDSGFVPSVQDFDKKLTEADAYLQILIEQLKLFDDKLQNCKEDEQRKKIETLKETTNSMVESIKHCIVLLQIAKDQSNAEKHADGMISTINPVDAIYQPSPLEPVISTMPSQTVLPPEPVQLCKSEQRPSSLPVGPVLATLGHHQTPTPNSTGSGHSPPSSSLTSPSHVNLSPNTVPEFSYSSSEDEFYDADEFHQSGSSPKRLIDSSGSASVLTHSSSGNSLKRPDTTESLNSSLSNGTSDADLFDSHDDRDDDAEAGSVEEHKSVIMHLLSQVRLGMDLTKVVLPTFILERRSLLEMYADFFAHPDLFVSISDQKDPKDRMVQVVKWYLSAFHAGRKGSVAKKPYNPILGEIFQCHWTLPNDTEENTELVSEGPVPWVSKNSVTFVAEQVSHHPPISAFYAECFNKKIQFNAHIWTKSKFLGMSIGVHNIGQGCVSCLDYDEHYILTFPNGYGRSILTVPWVELGGECNINCSKTGYSANIIFHTKPFYGGKKHRITAEIFSPNDKKSFCSIEGEWNGVMYAKYATGENTVFVDTKKLPIIKKKVRKLEDQNEYESRSLWKDVTFNLKIRDIDAATEAKHRLEERQRAEARERKEKEIQWETRLFHEDGECWVYDEPLLKRLGAAKH |
